At least one peptide structure holds a part that was inferred or is arguable (an end, a ring closure or a residue). For part of these data: At least one compound was matched to its structure with a doubt left.
The compounds below were run against T1, GCGR (Homo sapiens, UniProt P47871) (assay: In vitro GCGR agonistic activity test (cAMP, HEK293 cell line)). Details: HEK293 cells expressing GCGR, read-out: GCG EC50.
T1 construct: host or cells: HEK293
Assay type: cell-based
Procedure: (§1) The cell lines were constructed by Pharmaron Inc. See details in the table below.
(§2) The test compounds were diluted at a 5-fold dilution factor in 10 points, starting from an initial concentration of 200 nM.
(§3) 1) The cell lines were cultured respectively in complete medium at 37° C. and 5% CO2.
2) After digestion with TrypLE, the cells were re-suspended in experimental buffer respectively, and inoculated in a CulturPlate-384 cell culture plate at a density of 2000 cells/well and at a volume of 15 μL/well.
(§4) 1) Eu-cAMP tracer was freeze-thawed and diluted 50 fold with detection buffer; and Ulight-anti-cAMP was freeze-thawed and diluted 150 fold with detection buffer.
2) 5 μL of the test compounds were added respectively into experimental wells of the CulturPlate-384 cell culture plate, which was centrifuged at 200 g for 30 s, and left for stand at 37° C. for 30 min.
(§5) 3) 10 μL of Eu-cAMP tracer was added and then 10 μL of Uligh-anti-cAMP was added into experimental wells respectively.
(§6) 4) The reaction plate was centrifuged at 200 g at room temperature for 30 s and left for stand at 25° C. for 1 h.
5) Envision 2105 was used to collect data, with excitation light at 340 nm and emission light at 665 nm and 615 nm.

T1 sequence (P47871 26-477, species assumed): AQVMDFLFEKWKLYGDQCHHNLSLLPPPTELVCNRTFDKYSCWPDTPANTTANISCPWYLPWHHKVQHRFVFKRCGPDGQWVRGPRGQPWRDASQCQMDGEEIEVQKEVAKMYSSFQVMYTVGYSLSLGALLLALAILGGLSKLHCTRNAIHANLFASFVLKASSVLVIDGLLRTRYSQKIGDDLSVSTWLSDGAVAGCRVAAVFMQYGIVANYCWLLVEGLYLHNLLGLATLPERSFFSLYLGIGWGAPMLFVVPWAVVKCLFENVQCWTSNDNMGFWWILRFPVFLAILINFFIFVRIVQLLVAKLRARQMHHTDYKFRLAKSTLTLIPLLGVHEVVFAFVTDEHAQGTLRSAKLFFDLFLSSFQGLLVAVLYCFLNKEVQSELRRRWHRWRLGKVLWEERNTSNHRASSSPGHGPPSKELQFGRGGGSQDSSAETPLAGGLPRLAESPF

Compound	EC50 [nM]
CC[C@H](C)[C@H](NC(=O)[C@H](CO)NC(=O)[C@H](Cc1ccc(O)cc1)NC(=O)[C@H](CC(=O)O)NC(=O)[C@H](CO)NC(=O)[C@@H](NC(=O)[C@H](Cc1ccccc1)NC(=O)[C@@H](NC(=O)CNC(=O)[C@H](Cc1c[nH]cn1)NC(=O)C(C)(C)NC(=O)[C@@H](N)Cc1c[nH]cn1)[C@@H](C)O)[C@@H](C)O)C(=O)N[C@@H](Cc1ccc(O)cc1)C(=O)N[C@@H](CC(C)C)C(=O)N[C@@H](CCC(=O)O)C(=O)N[C@@H](CCCCN)C(=O)N[C@H]1CCCCNC(=O)CN(C(=O)COCCOCCNC(=O)COCCOCCNC(=O)CC[C@H](NC(=O)CCCCCCCCCCCCCCCCCCC(=O)O)C(=O)O)CC(=O)NCCCC[C@@H](C(=O)N[C@@H](Cc2ccccc2)C(=O)N[C@H](C(=O)N[C@@H](CCC(N)=O)C(=O)N[C@@H](Cc2c[nH]c3ccccc23)C(=O)N[C@@H](CC(C)C)C(=O)N[C@@H](CC(C)C)C(=O)N[C@@H](CCC(=O)O)C(=O)NCC(=O)NCC(=O)N2CCC[C@H]2C(=O)N[C@@H](CO)C(=O)N[C@@H](CO)C(=O)NCC(=O)N[C@@H](C)C(=O)N2CCC[C@H]2C(=O)N2CCC[C@H]2C(=O)N2CCC[C@H]2C(=O)N[C@@H](CO)C(N)=O)C(C)C)NC(=O)C(C)(C)NC(=O)[C@H](C)NC(=O)[C@H](Cc2ccc(O)cc2)NC1=O [Example 5, HAibHGT FTSDY SIYLE K^1KYAAib ^1KFVQW LLEGG PSSGA PPPS-NH2 (SEQ ID NO: 5)]	0.012

These compounds were tested against T2, GLP-1R (Homo sapiens, UniProt P43220) (assay: In vitro GLP-1R agonistic activity test (cAMP, HEK293 cell line)). Details: HEK293 cells expressing GLP-1R.
T2 construct: host or cells: HEK293
T2 sequence (P43220 24-463, species assumed): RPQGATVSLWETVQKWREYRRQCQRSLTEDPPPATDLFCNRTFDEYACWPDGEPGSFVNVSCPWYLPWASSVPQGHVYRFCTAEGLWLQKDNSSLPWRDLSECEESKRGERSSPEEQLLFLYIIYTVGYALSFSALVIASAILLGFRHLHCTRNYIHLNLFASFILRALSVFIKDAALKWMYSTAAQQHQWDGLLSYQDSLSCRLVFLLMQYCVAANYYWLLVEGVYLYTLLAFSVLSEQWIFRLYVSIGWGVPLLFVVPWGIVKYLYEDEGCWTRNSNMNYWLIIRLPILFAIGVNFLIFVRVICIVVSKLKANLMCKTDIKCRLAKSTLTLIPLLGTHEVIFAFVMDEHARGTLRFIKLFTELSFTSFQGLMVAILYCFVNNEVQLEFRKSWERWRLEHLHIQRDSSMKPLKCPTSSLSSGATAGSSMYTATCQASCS
Assay type: cell-based
Procedure: as §1, §2, §3, §4, §5, §6

Compound	EC50 [pM]
CC[C@H](C)[C@H](NC(=O)[C@H](Cc1ccccc1)NC(=O)[C@@H]1CCCNC(=O)CN(C(=O)COCCOCCNC(=O)COCCOCCNC(=O)CC[C@H](NC(=O)CCCCCCCCCCCCCCCCCCC(=O)O)C(=O)O)CC(=O)NCCCC[C@H](NC(=O)[C@H](CCCCN)NC(=O)[C@H](CC(=O)O)NC(=O)[C@H](CC(C)C)NC(=O)[C@](C)(CC(C)C)NC(=O)[C@@H](NC(=O)[C@H](CO)NC(=O)[C@H](Cc2ccc(O)cc2)NC(=O)[C@H](CC(=O)O)NC(=O)[C@H](CO)NC(=O)[C@@H](NC(=O)[C@H](Cc2ccccc2)NC(=O)[C@@H](NC(=O)CNC(=O)[C@H](CCC(N)=O)NC(=O)C(C)(C)NC(=O)[C@@H](N)Cc2ccc(O)cc2)[C@@H](C)O)[C@@H](C)O)[C@@H](C)CC)C(=O)N[C@@H](C)C(=O)N[C@@H](CCC(N)=O)C(=O)NC(C)(C)C(=O)N1)C(=O)N[C@@H](CCC(=O)O)C(=O)N[C@@H](Cc1ccc(O)cc1)C(=O)N[C@@H](CC(C)C)C(=O)N[C@@H](CC(C)C)C(=O)N[C@@H](CCC(=O)O)C(=O)NCC(=O)NCC(=O)N1CCC[C@H]1C(=O)N[C@@H](CO)C(=O)N[C@@H](CO)C(=O)NCC(=O)N[C@@H](C)C(=O)N1CCC[C@H]1C(=O)N1CCC[C@H]1C(=O)N1CCC[C@H]1C(=O)N[C@@H](CO)C(N)=O [Example 17, YAibQGT FTSDY SIα- MeLLD K^1KAQAib ^1L- OrnFIEY LLEGG PSSGA PPPS-NH2 (SEQ ID NO: 23)]	1
CC[C@H](C)[C@H](NC(=O)[C@H](CC(C)C)NC(=O)[C@H](Cc1ccccc1)NC(=O)[C@H](CCC(=O)O)NC(=O)[C@@H](NC(=O)[C@H](Cc1ccccc1)NC(=O)[C@@H]1CCCCNC(=O)CN(C(=O)[C@@H](N)CCCCNC(=O)[C@@H](N)CCCCNC(=O)CC[C@H](NC(=O)CCCCCCCCCCCCCCCCCCC(=O)O)C(=O)O)CC(=O)NCCCC[C@H](NC(=O)[C@H](CCCCN)NC(=O)[C@H](CC(=O)O)NC(=O)[C@H](CC(C)C)NC(=O)[C@](C)(CC(C)C)NC(=O)[C@@H](NC(=O)[C@H](CO)NC(=O)[C@H](Cc2ccc(O)cc2)NC(=O)[C@H](CC(=O)O)NC(=O)[C@H](CO)NC(=O)[C@@H](NC(=O)[C@H](Cc2ccccc2)NC(=O)[C@@H](NC(=O)CNC(=O)[C@H](CCC(N)=O)NC(=O)C(C)(C)NC(=O)[C@@H](N)Cc2ccc(O)cc2)[C@@H](C)O)[C@@H](C)O)[C@@H](C)CC)C(=O)N[C@@H](C)C(=O)N[C@@H](CCC(N)=O)C(=O)NC(C)(C)C(=O)N1)[C@@H](C)CC)C(=O)N[C@@H](CCC(=O)O)C(=O)NCC(=O)NCC(=O)N1CCC[C@H]1C(=O)N[C@@H](CO)C(=O)N[C@@H](CO)C(=O)NCC(=O)N[C@@H](C)C(=O)N1CCC[C@H]1C(=O)N1CCC[C@H]1C(=O)N1CCC[C@H]1C(=O)N[C@@H](CO)C(N)=O [Example 23, YAibQGT FTSDY SIα- MeLLD K^1KAQAib ^1KFIEF LIEGG PSSGA PPPS-NH2 (SEQ ID NO: 26)]	7
CC[C@H](C)[C@H](NC(=O)[C@H](Cc1ccccc1)NC(=O)[C@@H]1CCCCNC(=O)CN(C(=O)COCCOCCNC(=O)CC[C@H](NC(=O)CCCCCCCCCCCCCCCCCCC(=O)O)C(=O)O)CC(=O)NCCCC[C@H](NC(=O)[C@H](CCCCN)NC(=O)[C@H](CC(=O)O)NC(=O)[C@H](CC(C)C)NC(=O)[C@](C)(CC(C)C)NC(=O)[C@@H](NC(=O)[C@H](CO)NC(=O)[C@H](Cc2ccc(O)cc2)NC(=O)[C@H](CC(=O)O)NC(=O)[C@H](CO)NC(=O)[C@@H](NC(=O)[C@H](Cc2ccccc2)NC(=O)[C@@H](NC(=O)CNC(=O)[C@H](CCC(N)=O)NC(=O)C(C)(C)NC(=O)[C@@H](N)Cc2ccc(O)cc2)[C@@H](C)O)[C@@H](C)O)[C@@H](C)CC)C(=O)N[C@@H](C)C(=O)N[C@@H](CCC(N)=O)C(=O)NC(C)(C)C(=O)N1)C(=O)N[C@@H](CCC(=O)O)C(=O)N[C@@H](Cc1ccc(O)cc1)C(=O)N[C@@H](CC(C)C)C(=O)N[C@@H](CC(C)C)C(=O)N[C@@H](CCC(=O)O)C(=O)NCC(=O)NCC(=O)N1CCC[C@H]1C(=O)N[C@@H](CO)C(=O)N[C@@H](CO)C(=O)NCC(=O)N[C@@H](C)C(=O)N1CCC[C@H]1C(=O)N1CCC[C@H]1C(=O)N1CCC[C@H]1C(=O)N[C@@H](CO)C(N)=O [Example 6, YAibQGT FTSDY SIα- MeLLD K^1KAQAib ^1KFIEY LLEGG PSSGA PPPS-NH2 (SEQ ID NO: 1)]	5
CC[C@H](C)[C@H](NC(=O)[C@H](Cc1ccccc1)NC(=O)[C@H](C)NC(=O)C(C)(C)NC(=O)[C@H](CCC(N)=O)NC(=O)[C@H](C)NC(=O)[C@@H]1CCCCNC(=O)CN(C(=O)[C@@H](N)CCCCNC(=O)[C@@H](N)CCCCNC(=O)CC[C@H](NC(=O)CCCCCCCCCCCCCCCCCCC(=O)O)C(=O)O)CC(=O)NCCCC[C@H](NC(=O)[C@](C)(CC(C)C)NC(=O)[C@@H](NC(=O)[C@H](CO)NC(=O)[C@H](Cc2ccc(O)cc2)NC(=O)[C@H](CC(=O)O)NC(=O)[C@H](CO)NC(=O)[C@@H](NC(=O)[C@H](Cc2ccccc2)NC(=O)[C@@H](NC(=O)CNC(=O)[C@H](CCC(N)=O)NC(=O)C(C)(C)NC(=O)[C@@H](N)Cc2ccc(O)cc2)[C@@H](C)O)[C@@H](C)O)[C@@H](C)CC)C(=O)N[C@@H](CC(=O)O)C(=O)N[C@@H](CCCCN)C(=O)N1)C(=O)N[C@@H](CCC(=O)O)C(=O)N[C@@H](Cc1ccc(O)cc1)C(=O)N[C@@H](CC(C)C)C(=O)N[C@@H](CC(C)C)C(=O)N[C@@H](CCCCN)C(=O)NCC(=O)NCC(=O)N1CCC[C@H]1C(=O)N[C@@H](CO)C(=O)N[C@@H](CO)C(=O)NCC(=O)N[C@@H](C)C(=O)N1CCC[C@H]1C(=O)N1CCC[C@H]1C(=O)N1CCC[C@H]1C(=O)N[C@@H](CO)C(N)=O [Example 41, YAibQGT FTSDY SIα- MeL^1KD K^1KAQAib AFIEY LLKGG PSSGA PPPS-NH2 (SEQ ID NO: 38)]	3
CC[C@H](C)[C@H](NC(=O)[C@H](Cc1ccccc1)NC(=O)[C@H](C)NC(=O)C(C)(C)NC(=O)[C@H](CCC(N)=O)NC(=O)[C@H](C)NC(=O)[C@@H]1CCCCNC(=O)CN(C(=O)COCCOCCNC(=O)COCCOCCNC(=O)CC[C@H](NC(=O)CCCCCCCCCCCCCCCCCCC(=O)O)C(=O)O)CC(=O)NCCCC[C@H](NC(=O)[C@](C)(CC(C)C)NC(=O)[C@@H](NC(=O)[C@H](CO)NC(=O)[C@H](Cc2ccc(O)cc2)NC(=O)[C@H](CC(=O)O)NC(=O)[C@H](CO)NC(=O)[C@@H](NC(=O)[C@H](Cc2ccccc2)NC(=O)[C@@H](NC(=O)CNC(=O)[C@H](CCC(N)=O)NC(=O)C(C)(C)NC(=O)[C@@H](N)Cc2ccc(O)cc2)[C@@H](C)O)[C@@H](C)O)[C@@H](C)CC)C(=O)N[C@@H](CC(=O)O)C(=O)N[C@@H](CCCCN)C(=O)N1)C(=O)N[C@@H](CCC(=O)O)C(=O)N[C@@H](Cc1ccc(O)cc1)C(=O)N[C@@H](CC(C)C)C(=O)N[C@@H](CC(C)C)C(=O)N[C@@H](CCC(=O)O)C(=O)NCC(=O)NCC(=O)N1CCC[C@H]1C(=O)N[C@@H](CO)C(=O)N[C@@H](CO)C(=O)NCC(=O)N[C@@H](C)C(=O)N1CCC[C@H]1C(=O)N1CCC[C@H]1C(=O)N1CCC[C@H]1C(=O)N[C@@H](CO)C(N)=O [Example 45, YAibQGT FTSDY SIα- MeL^1KD K^1KAQAib AFIEY LLEGG PSSGA PPPS-NH2 (SEQ ID NO: 24)]	5

Source: patent US20260234211A1, “POLYPEPTIDE HAVING MODIFIED STRUCTURE AND USE THEREOF” (Guangdong Raynovent Biotech Co., Ltd., priority 2023, published 2026)
